From the supplement of paper PMC10126150
Sequences with one replicate were seen in a single cluster, so their values are uncertain.

Test system: ATP
Assay: switch fluorescence ratio, 500 uM ATP over buffer (Cy3 cluster intensity, sum of 5 cycles each) (fold (ratio)); higher = stronger signal-on switching upon ATP binding; sequences stand for … in TCGTCGGCAGCGTCAGATGTGTATAAGAGACAGTTTTTTTTTTTTTTTTTTTTTTTTT…TC
Conditions: aptamer strand: ATP DNA aptamer (quencher-CACCTGGGGGAGTATTGCGGAGGAAGG + anchor), 100 nM annealed; ATP concentration: 500 uM; one replicate
Method in brief: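 Per cluster, summed Cy3 intensity from the target cycles was divided by that from the buffer cycles to give the fluorescence ratio, then averaged per switch-domain sequence. Clusters outside 100-1000 RFU were excluded. The Cy3-labelled switching-strand clusters, on a modified Illumina MiSeq flow-cell, were annealed to 100 nM quencher-labelled ATP aptamer and imaged in selection buffer, then after 15 min with 500 uM ATP at 22 °C, for five cycles with NaOH stripping and re-annealing between them.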
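Note: ATP exposure 15 min at 22 °C before imaging.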

CATGTAGATG was tested, and the switch fluorescence ratio was 0.971.

TAGTAACGGC was tested, and the switch fluorescence ratio was 0.934.

Sequence GGCCGCCCTA has a switch fluorescence ratio of 1.03.

For TGAAGCGCAA, the switch fluorescence ratio was 4.7.

GGTGAGTAGC was tested, and the switch fluorescence ratio was 0.995.

GGTTGTAACT gave a switch fluorescence ratio of 0.99.

CTGTCGCGC gave a switch fluorescence ratio of 1.1.

TAGGGTATTC showed a switch fluorescence ratio of 0.958.

Sequence CTCACTGAGA has a switch fluorescence ratio of 1.03.

With CCAGCTGGGG the switch fluorescence ratio was 1.01.

In the case of AGGGCCAGAG, the switch fluorescence ratio is reported as 1.

GGAGTTCCCC showed a switch fluorescence ratio of 1.01.

In the case of GTAGAGCTAG, the switch fluorescence ratio is reported as 0.993.

In the case of CGAGAGGTAG, the switch fluorescence ratio is reported as 0.967.

TCGTTTAATG gave a switch fluorescence ratio of 1.01.

CGTTGGGGCT was tested, and the switch fluorescence ratio was 1.15.

Sequence GGGCCCGACA has a switch fluorescence ratio of 0.995.

Work on ACAGTGCTGT yielded a switch fluorescence ratio of 1.07.

CTGCAGTGGT was tested, and the switch fluorescence ratio was 1.16.

With CCAGCATGTT the switch fluorescence ratio was 1.05.

With TGCTGGAACC the switch fluorescence ratio was 0.981.

Sequence GTGTTGTGGG has a switch fluorescence ratio of 0.993.

Sequence TTATACACTC has a switch fluorescence ratio of 1.01.

TAGCGTTCCC was tested, and the switch fluorescence ratio was 1.16.

TTGCGACTAT gave a switch fluorescence ratio of 1.01.

For TAACTTCTGT, the switch fluorescence ratio was 0.97.

TTTCTCGATT gave a switch fluorescence ratio of 0.994.

Work on GCCGAGGCGG yielded a switch fluorescence ratio of 1.01.

CGTGCGTTGG was tested, and the switch fluorescence ratio was 0.979.

Sequence CGACCACC has a switch fluorescence ratio of 1.25.

GTGATTGCGA was tested, and the switch fluorescence ratio was 0.969.

Sequence ACCCTCGTTT has a switch fluorescence ratio of 0.972.

For ATAGCCGCCT, the switch fluorescence ratio was 1.05.

Work on ATAGTACACT yielded a switch fluorescence ratio of 1.02.

With CATTATGAGT the switch fluorescence ratio was 1.03.

For GTTCATGGGT, the switch fluorescence ratio was 1.04.

With GCAAACGCCT the switch fluorescence ratio was 1.14.

ATCCAAAGAG was tested, and the switch fluorescence ratio was 1.01.

GCTGTAGTG showed a switch fluorescence ratio of 1.03.

Work on CCAATGGAGC yielded a switch fluorescence ratio of 1.02.

With CCTCTTGGCG the switch fluorescence ratio was 1.01.

With ATGGTGCGCG the switch fluorescence ratio was 1.01.

For CTAAGGGGTA, the switch fluorescence ratio was 0.986.

In the case of TAACAGTATT, the switch fluorescence ratio is reported as 1.08.

For TGATGGCGAA, the switch fluorescence ratio was 1.04.

In the case of GGCGTCATGG, the switch fluorescence ratio is reported as 1.02.

For CCATTTCATG, the switch fluorescence ratio was 0.959.

TCTGGCGTCT showed a switch fluorescence ratio of 1.03.

CTGAAGGAAA showed a switch fluorescence ratio of 1.02.

CCTGATCCTT gave a switch fluorescence ratio of 1.04.

GAAACCGTAT showed a switch fluorescence ratio of 1.04.

TGGGCAGTTG gave a switch fluorescence ratio of 0.996.

With GGTTGTATTA the switch fluorescence ratio was 0.997.

GCGGGTGCCT showed a switch fluorescence ratio of 1.03.

GCCGACCAAA gave a switch fluorescence ratio of 1.16.

For CGAAATCATA, the switch fluorescence ratio was 0.999.

With GCGGGAAGTG the switch fluorescence ratio was 0.967.

CCCCTCTAGC was tested, and the switch fluorescence ratio was 1.23.

Work on GTGAACAACC yielded a switch fluorescence ratio of 1.03.

AGCGTGTCGG showed a switch fluorescence ratio of 1.04.

ATGCGAGGG showed a switch fluorescence ratio of 1.01.

With TCGATGTACG the switch fluorescence ratio was 1.

Sequence GGCGGTTTTT has a switch fluorescence ratio of 1.

Work on GCTTCTGCTG yielded a switch fluorescence ratio of 0.988.

Sequence CCAGGCCAGT has a switch fluorescence ratio of 1.04.

With TAAACCGCAT the switch fluorescence ratio was 2.65.

Work on TTAAAACCAC yielded a switch fluorescence ratio of 1.23.

In the case of AGGACCCAAT, the switch fluorescence ratio is reported as 1.04.

Sequence GCTGCTCGAC has a switch fluorescence ratio of 1.07.

For TGGCAAACGC, the switch fluorescence ratio was 1.03.

CGCGTCACGT gave a switch fluorescence ratio of 1.03.

With TGTCGAGTGG the switch fluorescence ratio was 1.02.

In the case of TATGATTTTT, the switch fluorescence ratio is reported as 1.04.

TTTGCTGATG was tested, and the switch fluorescence ratio was 0.969.

TCTGGGCAGT gave a switch fluorescence ratio of 1.04.

With TTGGGCACCG the switch fluorescence ratio was 1.01.

GAAGCGATAG gave a switch fluorescence ratio of 4.94.

With TTATAATAGC the switch fluorescence ratio was 0.944.

For AAACAGGAAT, the switch fluorescence ratio was 1.02.

Work on GTGCCTGGGG yielded a switch fluorescence ratio of 1.02.

Sequence GTTTTAAGTC has a switch fluorescence ratio of 1.01.

CGGATTTTTG was tested, and the switch fluorescence ratio was 0.959.

Sequence CTGAGTACGA has a switch fluorescence ratio of 0.994.

TTGAATAGAC was tested, and the switch fluorescence ratio was 1.05.

In the case of TATTTCAGAC, the switch fluorescence ratio is reported as 1.02.

With TTCACACGAT the switch fluorescence ratio was 1.

In the case of TCAGGTGTA, the switch fluorescence ratio is reported as 1.64.

Sequence AGATGTCCGG has a switch fluorescence ratio of 1.01.

Work on CCTAGATGTC yielded a switch fluorescence ratio of 1.07.

GACGGATGGG showed a switch fluorescence ratio of 1.01.

Work on GGGTAGG yielded a switch fluorescence ratio of 0.99.

Work on AAAGCATATA yielded a switch fluorescence ratio of 1.13.

CTTCGATCAT gave a switch fluorescence ratio of 1.03.

Work on GGTCCAAGCT yielded a switch fluorescence ratio of 1.03.

For CATATGTGAT, the switch fluorescence ratio was 0.986.

With TCATGATCGG the switch fluorescence ratio was 0.958.

AGCGCTCTGC gave a switch fluorescence ratio of 0.965.

GGGGAACACA gave a switch fluorescence ratio of 1.

CCACGGGCAC was tested, and the switch fluorescence ratio was 1.5.

Work on CTCAACAGT yielded a switch fluorescence ratio of 1.01.

ATTTTACTAT was tested, and the switch fluorescence ratio was 1.01.

Sequence TCTGTGAAGT has a switch fluorescence ratio of 0.985.

CAACTTTTTA gave a switch fluorescence ratio of 1.02.

CGGAAATGAC showed a switch fluorescence ratio of 1.12.

CCTGGTGGGG was tested, and the switch fluorescence ratio was 0.955.

Sequence GCCTTCAACG has a switch fluorescence ratio of 1.67.

In the case of GACTTCTCCT, the switch fluorescence ratio is reported as 1.05.

In the case of TGGGAGCTTA, the switch fluorescence ratio is reported as 1.06.

GGAGATTCAA was tested, and the switch fluorescence ratio was 1.01.

CCCCCTGCTT gave a switch fluorescence ratio of 1.43.

In the case of CTTGTCACTT, the switch fluorescence ratio is reported as 1.04.

With CAGTGAACTA the switch fluorescence ratio was 1.04.

Sequence TCCAACATGC has a switch fluorescence ratio of 1.28.

In the case of TATAGTGCTG, the switch fluorescence ratio is reported as 0.972.

Sequence TTGAGGCTAG has a switch fluorescence ratio of 0.941.

Work on CTTGGATTGG yielded a switch fluorescence ratio of 0.992.

With CGTCACAGTA the switch fluorescence ratio was 1.03.

Work on AGTTATACCC yielded a switch fluorescence ratio of 1.03.

With GGCGCTTCTA the switch fluorescence ratio was 1.03.

With TGCAAAAAAA the switch fluorescence ratio was 1.05.

Sequence TTTTAGGCAG has a switch fluorescence ratio of 0.987.

Work on AGCAGCTTTC yielded a switch fluorescence ratio of 1.08.

For AGATGGCAAG, the switch fluorescence ratio was 0.982.

GTCTGTTGCT was tested, and the switch fluorescence ratio was 1.1.

Sequence GTGAGGTGCG has a switch fluorescence ratio of 0.993.

For GCTAGGAGCC, the switch fluorescence ratio was 0.993.

For AATGTGTACC, the switch fluorescence ratio was 1.02.

With AATCGGTCTA the switch fluorescence ratio was 0.981.

Sequence ATGAAAGTAA has a switch fluorescence ratio of 1.03.

GTTGGTCCG was tested, and the switch fluorescence ratio was 1.05.

Sequence AATCTGTTGC has a switch fluorescence ratio of 0.977.

For TTTCTCAAAT, the switch fluorescence ratio was 1.06.

Work on ACCTTGACGT yielded a switch fluorescence ratio of 1.13.

AAATACGCAA was tested, and the switch fluorescence ratio was 6.77.

In the case of CAATCATGCC, the switch fluorescence ratio is reported as 0.989.

For TCGAATGGT, the switch fluorescence ratio was 1.01.

ATAATTACT was tested, and the switch fluorescence ratio was 1.03.

ATTAGATTAT was tested, and the switch fluorescence ratio was 0.998.

GGGACGTAAG showed a switch fluorescence ratio of 1.06.

GCAAGCAGTG was tested, and the switch fluorescence ratio was 0.969.

With CAGAGTCGCA the switch fluorescence ratio was 1.03.

TTATGAACTA was tested, and the switch fluorescence ratio was 0.994.

TCGAAACAGC showed a switch fluorescence ratio of 1.03.

TTGTTTCATT showed a switch fluorescence ratio of 0.977.

ACTATGTAAT gave a switch fluorescence ratio of 1.02.

For AGTTCTCTCG, the switch fluorescence ratio was 1.05.

Sequence TTTTAGGACG has a switch fluorescence ratio of 0.992.

For CCGTCATTGG, the switch fluorescence ratio was 1.29.

Sequence TCAAGTACCG has a switch fluorescence ratio of 1.13.

With GGACGGTCAA the switch fluorescence ratio was 0.985.

Work on AAGTCCTCTT yielded a switch fluorescence ratio of 0.98.

Work on TAAAAATGGG yielded a switch fluorescence ratio of 0.983.

AGATTAGATC showed a switch fluorescence ratio of 1.02.

GATTACGGTA gave a switch fluorescence ratio of 1.16.

In the case of ACTAGTGGAC, the switch fluorescence ratio is reported as 1.04.

GAAATGCGG was tested, and the switch fluorescence ratio was 0.971.

ACAGCGAGAG showed a switch fluorescence ratio of 1.06.
